# Experimental data: the supplement of paper PMC8728848
# Some of the results follow.
# B1: Langerin (Homo sapiens), Q9UJ71 (protein)
# chain: STLNAQIPELKSDLEKASALNTKIRALQGSLENMSKLLKRQNDILQVVSQGWKYFKGNFYYFSLIPKTWYSAEQFCVSRNSHLTSVTSESEQEFLYKTAGGLIYWIGLTKAGMEGDWSWVDDTPFNKVQSARFWIPGEPNDAGNNEHCGNIKAPSLQAWNDAPCDITFLFICKRPYVPSEP
# Assays:
# Assay in all cases: glycan array binding signal (z-score within array); higher = stronger binding
# Conditions in all cases: glycan notation: IUPAC condensed, linker removed; mutation: N288D, K313I
# [1] = target: Gal(b1-3)GlcNAc(b1-6)GalNAc
# How it was run: (§1)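 Arrays were curated from the Consortium for Functional Glycomics database, 3228 in total, and kept only where the protein sequence was available. Binding is expressed as a within-array Z-score. This score was averaged across arrays of the same protein sequence at different concentrations or buffers and across linkers, and negative values can be read as non-binding.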
# [2] = target: Gal(b1-3)GlcNAc(b1-6)[Gal(b1-3)]GalNAc
# How it was run: as §1
# Gal(b1-3)GlcNAc6S = target: Gal(b1-3)GlcNAc6S
# How it was run: as §1
# [3] = target: Gal(b1-3)[Fuc(a1-4)]GlcNAc
# How it was run: as §1
# [4] = target: Gal(b1-3)[Fuc(a1-4)]GlcNAc(b1-2)Man
# How it was run: as §1
# [5] = target: Gal(b1-3)[Fuc(a1-4)]GlcNAc(b1-2)Man(a1-3)[Gal(b1-3)[Fuc(a1-4)]GlcNAc(b1-2)Man(a1-6)]Man(b1-4)GlcNAc(b1-4)[Fuc(a1-6)]GlcNAc
# How it was run: as §1
# [6] = target: Gal(b1-3)[Fuc(a1-4)]GlcNAc(b1-3)Gal(b1-3)[Fuc(a1-4)]GlcNAc
# How it was run: as §1
# [7] = target: Gal(b1-3)[Fuc(a1-4)]GlcNAc(b1-3)Gal(b1-4)[Fuc(a1-3)]GlcNAc
# How it was run: as §1
# [8] = target: Gal(b1-3)[Fuc(a1-4)]GlcNAc(b1-6)GalNAc
# How it was run: as §1
# [9] = target: Gal(b1-3)[GlcNAc(b1-6)]GalNAc
# How it was run: as §1
# [10] = target: Gal(b1-3)[Neu5Ac(a2-6)]GalNAc
# How it was run: as §1
# [11] = target: Gal(b1-3)[Neu5Ac(a2-6)]GlcNAc(b1-4)Gal(b1-4)Glc
# How it was run: as §1
# [12] = target: Gal(b1-3)[Neu5Ac(b2-6)]GalNAc
# How it was run: as §1
# Gal(b1-4)Gal = target: Gal(b1-4)Gal
# How it was run: as §1
# [13] = target: Gal(b1-4)GalNAc(a1-3)[Fuc(a1-2)]Gal(b1-4)GlcNAc
# How it was run: as §1
# [14] = target: Gal(b1-4)GalNAc(b1-3)[Fuc(a1-2)]Gal(b1-4)GlcNAc
# How it was run: as §1
# Gal(b1-4)Glc = target: Gal(b1-4)Glc
# How it was run: as §1
# Gal(b1-4)Glc6S = target: Gal(b1-4)Glc6S
# How it was run: as §1
# Gal(b1-4)GlcNAc = target: Gal(b1-4)GlcNAc
# How it was run: as §1
# [15] = target: Gal(b1-4)GlcNAc(a1-6)Gal(b1-4)GlcNAc
# How it was run: as §1
# Gal(b1-4)GlcNAc(b1-2)Man = target: Gal(b1-4)GlcNAc(b1-2)Man
# How it was run: as §1
# [16] = target: Gal(b1-4)GlcNAc(b1-2)Man(a1-3)Man(b1-4)GlcNAc(b1-4)GlcNAc
# How it was run: as §1
# [17] = target: Gal(b1-4)GlcNAc(b1-2)Man(a1-3)[Gal(b1-4)GlcNAc(b1-2)Man(a1-6)]Man(b1-4)GlcNAc(b1-4)GlcNAc
# How it was run: as §1
# [18] = target: Gal(b1-4)GlcNAc(b1-2)Man(a1-3)[Gal(b1-4)GlcNAc(b1-2)Man(a1-6)]Man(b1-4)GlcNAc(b1-4)[Fuc(a1-6)]GlcNAc
# How it was run: as §1
# [19] = target: Gal(b1-4)GlcNAc(b1-2)Man(a1-3)[Gal(b1-4)GlcNAc(b1-2)Man(a1-6)][Gal(b1-4)GlcNAc(b1-4)]Man(b1-4)GlcNAc(b1-4)[Fuc(a1-6)]GlcNAc
# How it was run: as §1
# [20] = target: Gal(b1-4)GlcNAc(b1-2)Man(a1-3)[Gal(b1-4)GlcNAc(b1-2)Man(a1-6)][GlcNAc(b1-4)]Man(b1-4)GlcNAc(b1-4)[Fuc(a1-6)]GlcNAc
# How it was run: as §1
# [21] = target: Gal(b1-4)GlcNAc(b1-2)Man(a1-3)[GlcNAc(b1-2)Man(a1-6)]Man(b1-4)GlcNAc(b1-4)GlcNAc
# How it was run: as §1
# [22] = target: Gal(b1-4)GlcNAc(b1-2)Man(a1-3)[GlcNAc(b1-4)][Gal(b1-4)GlcNAc(b1-2)Man(a1-6)]Man(b1-4)GlcNAc(b1-4)GlcNAc
# How it was run: as §1
# [23] = target: Gal(b1-4)GlcNAc(b1-2)Man(a1-3)[Man(a1-6)]Man(b1-4)GlcNAc(b1-4)GlcNAc
# How it was run: as §1
# [24] = target: Gal(b1-4)GlcNAc(b1-2)Man(a1-6)Man(b1-4)GlcNAc(b1-4)GlcNAc
# How it was run: as §1
# [25] = target: Gal(b1-4)GlcNAc(b1-2)Man(a1-6)[GlcNAc(b1-2)Man(a1-3)]Man(b1-4)GlcNAc(b1-4)GlcNAc
# How it was run: as §1
# [26] = target: Gal(b1-4)GlcNAc(b1-2)Man(a1-6)[Man(a1-3)]Man(b1-4)GlcNAc(b1-4)GlcNAc
# How it was run: as §1
# [27] = target: Gal(b1-4)GlcNAc(b1-2)[Gal(b1-4)GlcNAc(b1-4)]Man(a1-3)[Gal(b1-4)GlcNAc(b1-2)Man(a1-6)]Man(b1-4)GlcNAc(b1-4)GlcNAc
# How it was run: as §1
# [28] = target: Gal(b1-4)GlcNAc(b1-2)[Gal(b1-4)GlcNAc(b1-4)]Man(a1-3)[Gal(b1-4)GlcNAc(b1-2)[Gal(b1-4)GlcNAc(b1-6)]Man(a1-6)]Man(b1-4)GlcNAc(b1-4)GlcNAc
# How it was run: as §1
# [29] = target: Gal(b1-4)GlcNAc(b1-2)[Gal(b1-4)GlcNAc(b1-4)]Man(a1-3)[GlcNAc(b1-4)][Gal(b1-4)GlcNAc(b1-2)Man(a1-6)]Man(b1-4)GlcNAc(b1-4)GlcNAc
# How it was run: as §1
# [30] = target: Gal(b1-4)GlcNAc(b1-2)[Gal(b1-4)GlcNAc(b1-4)]Man(a1-3)[GlcNAc(b1-4)][Gal(b1-4)GlcNAc(b1-2)[Gal(b1-4)GlcNAc(b1-6)]Man(a1-6)]Man(b1-4)GlcNAc(b1-4)GlcNAc
# How it was run: as §1
# [31] = target: Gal(b1-4)GlcNAc(b1-2)[Gal(b1-4)GlcNAc(b1-6)]Man(a1-6)[Gal(b1-4)GlcNAc(b1-2)Man(a1-3)]Man(b1-4)GlcNAc(b1-4)GlcNAc
# How it was run: as §1
# [32] = target: Gal(b1-4)GlcNAc(b1-2)[Gal(b1-4)GlcNAc(b1-6)]Man(a1-6)[Gal(b1-4)GlcNAc(b1-2)Man(a1-3)]Man(b1-4)GlcNAc(b1-4)[Fuc(a1-6)]GlcNAc
# How it was run: as §1
# [33] = target: Gal(b1-4)GlcNAc(b1-2)[Gal(b1-4)GlcNAc(b1-6)]Man(a1-6)[GlcNAc(b1-4)][Gal(b1-4)GlcNAc(b1-2)Man(a1-3)]Man(b1-4)GlcNAc(b1-4)GlcNAc
# How it was run: as §1
# [34] = target: Gal(b1-4)GlcNAc(b1-2)[Gal(b1-4)GlcNAc(b1-6)]Man(a1-6)[GlcNAc(b1-4)][Gal(b1-4)GlcNAc(b1-2)[Gal(b1-4)GlcNAc(b1-4)]Man(a1-3)]Man(b1-4)GlcNAc(b1-4)[Fuc(a1-6)]GlcNAc
# How it was run: as §1
# [35] = target: Gal(b1-4)GlcNAc(b1-3)Gal(b1-3)GalNAc
# How it was run: as §1
# [36] = target: Gal(b1-4)GlcNAc(b1-3)Gal(b1-3)GlcNAc
# How it was run: as §1
# [37] = target: Gal(b1-4)GlcNAc(b1-3)Gal(b1-4)Glc
# How it was run: as §1
# [38] = target: Gal(b1-4)GlcNAc(b1-3)Gal(b1-4)GlcNAc
# How it was run: as §1
# [39] = target: Gal(b1-4)GlcNAc(b1-3)Gal(b1-4)GlcNAc(b1-2)Man(a1-3)[Gal(b1-4)GlcNAc(b1-3)Gal(b1-4)GlcNAc(b1-2)Man(a1-6)]Man(b1-4)GlcNAc(b1-4)GlcNAc
# How it was run: as §1
binder,measurement,setting,value
B1,glycan array binding signal (z-score),[1],-0.138
same,glycan array binding signal (z-score),[2],0.13
same,glycan array binding signal (z-score),Gal(b1-3)GlcNAc6S,-0.276
same,glycan array binding signal (z-score),[3],-0.263
same,glycan array binding signal (z-score),[4],0.02
same,glycan array binding signal (z-score),[5],0.476
same,glycan array binding signal (z-score),[6],-0.072
same,glycan array binding signal (z-score),[7],0.008
same,glycan array binding signal (z-score),[8],-0.017
same,glycan array binding signal (z-score),[9],-0.203
same,glycan array binding signal (z-score),[10],-0.085
same,glycan array binding signal (z-score),[11],-0.173
same,glycan array binding signal (z-score),[12],-0.073
same,glycan array binding signal (z-score),Gal(b1-4)Gal,-0.053
same,glycan array binding signal (z-score),[13],-0.324
same,glycan array binding signal (z-score),[14],-0.285
same,glycan array binding signal (z-score),Gal(b1-4)Glc,-0.276
same,glycan array binding signal (z-score),Gal(b1-4)Glc6S,-0.072
same,glycan array binding signal (z-score),Gal(b1-4)GlcNAc,-0.269
same,glycan array binding signal (z-score),[15],-0.185
same,glycan array binding signal (z-score),Gal(b1-4)GlcNAc(b1-2)Man,-0.102
same,glycan array binding signal (z-score),[16],-0.101
same,glycan array binding signal (z-score),[17],-0.207
same,glycan array binding signal (z-score),[18],0.079
same,glycan array binding signal (z-score),[19],-0.009
same,glycan array binding signal (z-score),[20],-0.293
same,glycan array binding signal (z-score),[21],-0.225
same,glycan array binding signal (z-score),[22],-0.237
same,glycan array binding signal (z-score),[23],0.009
same,glycan array binding signal (z-score),[24],-0.198
same,glycan array binding signal (z-score),[25],-0.162
same,glycan array binding signal (z-score),[26],-0.086
same,glycan array binding signal (z-score),[27],-0.279
same,glycan array binding signal (z-score),[28],-0.351
same,glycan array binding signal (z-score),[29],-0.32
same,glycan array binding signal (z-score),[30],-0.293
same,glycan array binding signal (z-score),[31],-0.02
same,glycan array binding signal (z-score),[32],0.022
same,glycan array binding signal (z-score),[33],-0.202
same,glycan array binding signal (z-score),[34],0.023
same,glycan array binding signal (z-score),[35],-0.105
same,glycan array binding signal (z-score),[36],-0.016
same,glycan array binding signal (z-score),[37],-0.175
same,glycan array binding signal (z-score),[38],-0.254
same,glycan array binding signal (z-score),[39],0.133
